Binding data for four substances are collected here from paper PMC3950672.

By UniProt entry, the sequences of proteins in these tests, tags left out.
UniProt A5YKK6: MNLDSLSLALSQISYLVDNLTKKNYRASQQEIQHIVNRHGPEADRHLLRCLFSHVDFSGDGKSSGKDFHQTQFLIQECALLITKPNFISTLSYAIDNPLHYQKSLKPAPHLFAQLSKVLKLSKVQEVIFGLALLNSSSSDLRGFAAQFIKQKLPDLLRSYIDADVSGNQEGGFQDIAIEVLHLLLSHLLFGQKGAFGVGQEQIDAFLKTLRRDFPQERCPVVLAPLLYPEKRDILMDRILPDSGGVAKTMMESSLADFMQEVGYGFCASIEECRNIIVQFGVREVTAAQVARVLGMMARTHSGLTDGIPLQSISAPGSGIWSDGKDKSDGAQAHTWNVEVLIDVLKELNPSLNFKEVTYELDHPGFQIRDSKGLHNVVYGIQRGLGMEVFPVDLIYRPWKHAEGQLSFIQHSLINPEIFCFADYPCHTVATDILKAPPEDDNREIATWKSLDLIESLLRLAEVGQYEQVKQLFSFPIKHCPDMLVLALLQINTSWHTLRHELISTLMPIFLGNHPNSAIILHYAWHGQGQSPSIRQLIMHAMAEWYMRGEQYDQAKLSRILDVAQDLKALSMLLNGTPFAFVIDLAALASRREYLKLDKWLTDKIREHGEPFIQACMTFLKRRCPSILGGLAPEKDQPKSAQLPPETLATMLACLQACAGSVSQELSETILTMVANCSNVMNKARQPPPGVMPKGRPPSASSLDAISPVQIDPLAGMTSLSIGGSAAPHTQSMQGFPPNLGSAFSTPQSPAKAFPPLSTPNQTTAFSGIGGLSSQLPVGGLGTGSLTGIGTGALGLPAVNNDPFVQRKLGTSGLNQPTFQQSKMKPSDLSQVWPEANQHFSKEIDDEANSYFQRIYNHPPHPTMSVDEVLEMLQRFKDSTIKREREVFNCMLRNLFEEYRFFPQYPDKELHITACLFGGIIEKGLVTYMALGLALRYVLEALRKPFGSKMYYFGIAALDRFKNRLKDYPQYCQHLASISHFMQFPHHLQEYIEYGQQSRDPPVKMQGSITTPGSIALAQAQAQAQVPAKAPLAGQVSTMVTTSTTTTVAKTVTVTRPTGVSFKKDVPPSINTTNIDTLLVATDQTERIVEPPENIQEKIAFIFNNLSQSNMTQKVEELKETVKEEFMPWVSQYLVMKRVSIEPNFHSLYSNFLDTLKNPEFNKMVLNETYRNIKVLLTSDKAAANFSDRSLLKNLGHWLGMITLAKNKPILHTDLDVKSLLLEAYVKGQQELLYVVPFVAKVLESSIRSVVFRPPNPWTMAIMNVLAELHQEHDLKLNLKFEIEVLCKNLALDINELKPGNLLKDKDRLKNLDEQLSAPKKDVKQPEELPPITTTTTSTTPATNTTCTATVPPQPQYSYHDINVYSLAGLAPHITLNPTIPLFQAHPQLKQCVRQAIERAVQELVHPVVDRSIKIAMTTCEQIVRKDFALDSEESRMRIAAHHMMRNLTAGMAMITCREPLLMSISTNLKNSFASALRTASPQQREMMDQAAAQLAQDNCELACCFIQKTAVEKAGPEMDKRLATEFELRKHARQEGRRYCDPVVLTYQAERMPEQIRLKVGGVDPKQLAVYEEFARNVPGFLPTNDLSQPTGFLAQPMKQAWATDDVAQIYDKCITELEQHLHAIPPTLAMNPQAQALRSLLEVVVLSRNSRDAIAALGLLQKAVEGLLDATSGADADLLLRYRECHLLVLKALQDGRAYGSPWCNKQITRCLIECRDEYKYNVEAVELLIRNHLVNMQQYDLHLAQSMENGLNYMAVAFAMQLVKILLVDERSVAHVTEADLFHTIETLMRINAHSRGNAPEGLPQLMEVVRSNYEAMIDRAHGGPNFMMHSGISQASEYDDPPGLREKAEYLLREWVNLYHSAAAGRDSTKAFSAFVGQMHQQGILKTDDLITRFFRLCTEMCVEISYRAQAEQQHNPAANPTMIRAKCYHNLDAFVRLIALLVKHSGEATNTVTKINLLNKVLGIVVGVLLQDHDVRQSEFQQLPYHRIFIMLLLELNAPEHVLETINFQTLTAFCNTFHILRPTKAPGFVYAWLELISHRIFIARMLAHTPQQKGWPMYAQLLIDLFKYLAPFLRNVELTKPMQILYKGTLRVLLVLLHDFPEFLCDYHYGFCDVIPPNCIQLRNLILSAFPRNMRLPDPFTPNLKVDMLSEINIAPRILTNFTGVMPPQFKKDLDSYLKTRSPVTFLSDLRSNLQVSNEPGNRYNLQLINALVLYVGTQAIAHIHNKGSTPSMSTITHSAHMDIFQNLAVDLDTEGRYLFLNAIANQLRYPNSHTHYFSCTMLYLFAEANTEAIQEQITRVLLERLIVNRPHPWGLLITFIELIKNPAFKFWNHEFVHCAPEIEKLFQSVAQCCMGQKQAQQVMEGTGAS
UniProt Q9UIV1: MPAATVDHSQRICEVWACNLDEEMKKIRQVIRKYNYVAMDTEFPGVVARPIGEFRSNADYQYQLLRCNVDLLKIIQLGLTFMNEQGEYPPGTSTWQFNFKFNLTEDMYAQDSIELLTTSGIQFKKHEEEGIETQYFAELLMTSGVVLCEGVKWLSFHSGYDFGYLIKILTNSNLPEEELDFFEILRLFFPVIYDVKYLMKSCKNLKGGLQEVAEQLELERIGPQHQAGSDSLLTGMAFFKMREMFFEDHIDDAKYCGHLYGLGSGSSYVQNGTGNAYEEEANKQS
UniProt P06730: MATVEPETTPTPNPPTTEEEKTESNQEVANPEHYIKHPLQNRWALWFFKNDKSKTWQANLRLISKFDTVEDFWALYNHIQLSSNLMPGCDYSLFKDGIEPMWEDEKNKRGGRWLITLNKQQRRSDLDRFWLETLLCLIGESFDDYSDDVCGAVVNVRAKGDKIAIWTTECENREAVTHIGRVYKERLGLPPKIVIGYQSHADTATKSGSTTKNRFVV

Assay [1] has as its target T1, GFP-4E-T (human 4E-Transporter, wild type, full length) (human) (UniProt Q9NRA8).
T1 sequence: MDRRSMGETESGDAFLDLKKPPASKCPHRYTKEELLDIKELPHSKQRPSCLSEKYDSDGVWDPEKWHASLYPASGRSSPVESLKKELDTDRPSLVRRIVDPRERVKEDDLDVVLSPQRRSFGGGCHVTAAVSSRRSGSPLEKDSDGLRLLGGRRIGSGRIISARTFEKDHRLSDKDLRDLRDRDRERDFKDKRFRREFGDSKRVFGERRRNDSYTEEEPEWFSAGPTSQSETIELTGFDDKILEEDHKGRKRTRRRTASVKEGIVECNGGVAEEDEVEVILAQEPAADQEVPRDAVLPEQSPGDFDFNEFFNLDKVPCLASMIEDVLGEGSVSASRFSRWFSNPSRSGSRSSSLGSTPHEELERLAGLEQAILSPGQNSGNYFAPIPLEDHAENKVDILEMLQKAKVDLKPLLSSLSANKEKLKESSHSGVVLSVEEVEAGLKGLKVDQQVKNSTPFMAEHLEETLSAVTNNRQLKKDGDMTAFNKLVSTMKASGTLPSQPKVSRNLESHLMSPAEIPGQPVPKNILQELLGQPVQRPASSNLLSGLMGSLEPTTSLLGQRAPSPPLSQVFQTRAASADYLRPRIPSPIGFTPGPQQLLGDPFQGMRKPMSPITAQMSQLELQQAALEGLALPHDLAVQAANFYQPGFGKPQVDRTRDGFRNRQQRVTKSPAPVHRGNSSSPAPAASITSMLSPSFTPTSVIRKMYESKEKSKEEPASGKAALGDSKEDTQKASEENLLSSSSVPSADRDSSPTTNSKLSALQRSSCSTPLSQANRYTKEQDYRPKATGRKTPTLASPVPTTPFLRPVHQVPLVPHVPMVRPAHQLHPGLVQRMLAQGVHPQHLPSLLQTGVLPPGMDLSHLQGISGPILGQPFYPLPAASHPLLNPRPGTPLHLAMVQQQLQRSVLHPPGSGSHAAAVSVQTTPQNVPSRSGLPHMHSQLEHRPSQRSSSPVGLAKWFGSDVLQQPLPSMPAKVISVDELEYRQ
Briefly: co-IP; GFP-Trap magnetic beads with lysates of transfected HEK293 cells (1000 µg in 1 ml NET buffer: 50 mM Tris-HCl pH 7.5, 150 mM NaCl, 0.5% NP-40, 1 mM EDTA), 1.25 h at 4°C; western blotting of input and bound proteins.

In assay [2] the target is T2, GFP-4E-T YLL → AAA (4Emut) (human) (UniProt Q9NRA8).
T2 sequence: T1 sequence with Y30A, L35A, L36A
The assay is described as above.

Assay [3] has as its target T3, GFP-4E-T-Y30A (human) (UniProt Q9NRA8).
T3 sequence: T1 sequence with Y30A
The description is as above.

The target of assay [4] is T4, GFP-4E-T1-180 (human) (UniProt Q9NRA8).
T4 sequence: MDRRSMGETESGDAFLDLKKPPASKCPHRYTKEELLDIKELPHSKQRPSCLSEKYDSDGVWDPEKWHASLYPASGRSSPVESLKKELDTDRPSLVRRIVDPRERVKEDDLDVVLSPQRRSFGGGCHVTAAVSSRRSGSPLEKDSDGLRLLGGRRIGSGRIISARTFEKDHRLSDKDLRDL
The assay is described as above.

Assay [5] has as its target T5, human 4E-T mutated in the three key residues of YXXXXLL, yeast two-hybrid fusion (human) (UniProt Q9NRA8).
T5 sequence: T1 sequence with Y30A, L35A, L36A
The assay is described as follows: two-hybrid; S. cerevisiae AH109, pGBKT7 and pGADT7 AD fusions; growth on -Trp-Leu-Ade-His dropout plates (high stringency), 30°C.

Assay [6] has as its target T6, human 4E-T, yeast two-hybrid fusion (human) (UniProt Q9NRA8).
T6 sequence: T1 sequence
The assay is described as above.

Substitutions are numbered along the chain they refer to. These are yes or no findings as the source states them, for the method shown. For some assays here: Binding seen in cells or lysates may run through a third protein. Some entries that bind do so weakly or less than the wild type. Tags and fused reporters may be left off the sequences shown.

As to FLAG-CNOT1 (from UniProt A5YKK6 1-2376), the binding result in assay [1] is given as “binds weakly”.
On the same count and under the same terms, in the case of FLAG-CNOT7 (from UniProt Q9UIV1 1-285) it was “binds weakly”.
Turning to “eIF4E (endogenous, HEK293) (from UniProt P06730 1-217)”, the binding result in assay [2] is “no binding”; in assay [1], “binds”; in assay [3], “no binding”; in assay [4], “binds”.
In the case of “human eIF4E, yeast two-hybrid fusion (from UniProt P06730 1-217)”, the binding entry is “no binding” in assay [5] and “binds” in assay [6].
